Data published in PubChem BioAssay AID485341 (National Center for Advancing Translational Sciences (NCATS), 2010).
Among all 330,000 compounds or so, about 1,700 (0.52%) were called active. The shares of active, inactive and inconclusive entries below differ from those in the screen. Calls follow the shape of the dose curve; as a rule, active = well fitted inhibition curve with a large enough effect; inconclusive = small, poorly fitted or top-dose-only effect; inactive = no such curve, though single readings can be large or run the other way. Potencies of inconclusive entries are doubtful fits and often do not repeat.

These compounds were tested against Beta-lactamase (Escherichia coli (strain K12)) (UniProt P00811) (assay: qHTS Inhibitors of AmpC Beta-Lactamase (assay without detergent)). Settings: AmpC nitrocefin hydrolysis, absorbance 480 nm, 0.0001% Triton; series mostly up to 57.1 µM.
Chain of UniProt P00811 (P00811 whole entry, looked up): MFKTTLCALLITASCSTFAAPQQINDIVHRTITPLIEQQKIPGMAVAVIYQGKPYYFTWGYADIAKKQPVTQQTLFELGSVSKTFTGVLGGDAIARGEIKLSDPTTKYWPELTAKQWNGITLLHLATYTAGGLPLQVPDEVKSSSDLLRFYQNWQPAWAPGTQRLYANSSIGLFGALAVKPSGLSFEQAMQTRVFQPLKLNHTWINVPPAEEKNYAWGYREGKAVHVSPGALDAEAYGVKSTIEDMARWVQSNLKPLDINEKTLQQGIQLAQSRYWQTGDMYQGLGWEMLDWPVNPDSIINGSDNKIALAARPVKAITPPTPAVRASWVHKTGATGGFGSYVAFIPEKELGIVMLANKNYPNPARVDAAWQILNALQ
Outline: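 20 mM phosphate pH 7.0 + 0.01% (detergent screen) or 0.0001% Triton X-100; 5.3 nM AmpC reagent; cpd preinc 15 min RT; nitrocefin (800 uM stock) to start; A480 q20 s × 4 min; Activity was normalised to no-enzyme and no-compound control wells.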
Also: nearly all actives have a fitted effect of over 20% in size.
Potency is read from the fitted curve at half-maximal effect; tags tell the direction and shape of the fitted curve.

Row | SMILES | Potency
1 | C/C(CC(=O)Nc1ccccn1)=N\NC(=O)c1ccc(C)cc1 | inactive
2 | CC(Oc1ccccc1)C(=O)NC1C(=O)N2C1SC(C)(C)C2C(=O)O (centres undefined) | inconclusive: 35.5 µM [inhibitor, single point]
3 | CCOC(=O)C1(Cc2cccc(OC)c2)CCN(Cc2cccn2-c2nccs2)CC1 | inactive
4 | CC(=O)Oc1c(S(=O)(=O)c2ccc(C)cc2)c(C)nn1C(C)(C)C | inactive
5 | Cc1ccccc1CNC(=O)Cc1ccccc1[N+](=O)[O-] | inactive
6 | COc1ccc(NC(=O)C(C)N(c2ccc(C)cc2)S(C)(=O)=O)c(OC)c1 (centres undefined) | inconclusive: 5.62 µM [inhibitor, single point]
7 | NC(=O)[C@@H]1CCCNc2c(F)cc([N+](=O)[O-])cc2C(=O)N[C@@H](CO)C(=O)N[C@@H](Cc2ccc(O)cc2)C(=O)N1 | inconclusive: 10 µM [inhibitor, partial curve]
8 | Cc1ccc(NC(=O)CN(C)C(=O)COC(=O)CNS(=O)(=O)c2ccc(F)c(F)c2F)cc1 | inconclusive: 39.8 µM [inhibitor, single point]
9 | O=C(O)c1cc(N/N=C/c2ccc(N3CCOCC3)cc2)ccc1Cl | inconclusive: 8.91 µM [inhibitor, full curve, poor fit]
10 | CC1CCN(C(=S)NC2CCCCC2)CC1 | inconclusive: 6.31 µM [inhibitor, single point]
11 | O=C(Nc1ccccc1SCC1CSc2nc3ccccc3c(=O)n21)c1ccccc1 (centres undefined) | inconclusive: 6.31 µM [inhibitor, single point]
12 | O=C(NCCc1c[nH]c2ccccc12)C(=O)NCC1OCCCN1S(=O)(=O)c1ccccc1 (centres undefined) | inconclusive: 22.4 µM [inhibitor, single point]
13 | Cc1ccc(NCC(=O)c2ccccc2)cc1Cl | active: 0.316 µM
14 | CCOC(=S)SCC(=O)Nc1nc(C)c(C)s1 | active: 10 µM
15 | CC(C)C(NS(=O)(=O)c1cccs1)C(=O)Nc1nc(C(C)(C)C)cs1 (centres undefined) | inconclusive: 39.8 µM [inhibitor, single point]
16 | CCCC(=O)Nc1cccc(-c2nc3ccccc3o2)c1 | inconclusive: 35.5 µM [inhibitor, single point]
17 | O=C(Nc1cccc(-c2ccc(N3CCCCC3)nn2)c1)c1ccc(Br)o1 | inconclusive: 35.5 µM [inhibitor, single point]
18 | O=C(CSc1nnc(SCc2ccccc2)s1)N/N=C/C=C/c1ccco1 | active: 11.2 µM
19 | O=C(Cn1nnc(-c2ccccc2F)n1)Nc1ccc(C(=O)N2CCOCC2)cc1 | inconclusive: 6.31 µM [inhibitor, single point]
20 | CCOC(=S)SCC(=O)Nc1ncc(C)s1 | inactive
21 | O=C(Nc1cccc(-n2cnnn2)c1)c1ccc(C(F)(F)F)cc1 | inconclusive: 2.82 µM [inhibitor, full curve, poor fit]
22 | CC1(C)Cc2cccc(OCC(=O)Nc3ccccc3F)c2O1 | inconclusive: 39.8 µM [inhibitor, single point]
23 | Cc1cccc(/C=C/C(=O)c2cc(Br)ccc(=O)c2O)c1 | active: 31.6 µM
24 | CC(C)(C)c1ccc(OCC(=O)O)cc1 | inactive
25 | CCC(C)(C)NC(=O)C(c1cccn1C)N(Cc1ccccc1)C(=O)Cn1nnc2ccccc21 (centres undefined) | inactive

Row | SMILES | Potency
26 | CCn1cc(C(=O)c2cccs2)c2ccccc21 | inconclusive: 20 µM [inhibitor, single point]
27 | Cc1ccccc1OCC(=O)NCCCNC(=O)c1ccccn1 | inactive
28 | COc1ccccc1C(=O)NCC(=O)N/N=C/c1ccc2c(c1)OCO2 | inconclusive: 39.8 µM [inhibitor, single point]
29 | COc1ccc(-n2c(SCC(=O)Nc3ccc(Br)cc3)nc(O)cc2=O)cc1 | inconclusive: 39.8 µM [inhibitor, single point]
30 | CCc1noc(C)c1C(=O)Nc1ccc(-c2nnc3n2CCCCC3)cc1 | inconclusive: 35.5 µM [inhibitor, single point]
31 | O=C(CSc1ccc2ccccc2c1Br)Nc1cccc(S(=O)(=O)NC2=NCCCCC2)c1 | active: 7.08 µM
32 | CC(=O)Nc1ccc(NC(=O)C(C)OC(=O)/C=C/c2ccc3c(c2)OCO3)cc1 (centres undefined) | inconclusive: 31.6 µM [inhibitor, single point]
33 | Cn1cccc1C(=O)NC(=O)CSc1nc2ccccc2s1 | active: 15.8 µM
34 | Cc1ccc(O)c(NC(=O)c2noc3c2CCc2ccccc2-3)c1 | inactive
35 | CC1=C(C(=O)Nc2ccccn2)C(c2ccc(Cl)cc2Cl)NC(=S)N1 (centres undefined) | inconclusive: 31.6 µM [inhibitor, single point]
36 | CC(Sc1nnc(NC2CCCCC2)s1)C(=O)N1CCOCC1 (centres undefined) | inconclusive: 35.5 µM [inhibitor, single point]
37 | Cc1ccc(O)c(C(=O)CC(=O)c2cccc(F)c2)c1 | active: 20 µM
38 | CC(C)CNC(=O)CSc1nc(-c2cccs2)cc(C(F)(F)F)n1 | inactive
39 | CC(C)(CO)NC(=O)C12CC3CC(CC(Br)(C3)C1)C2 | inactive
40 | Cc1ccccc1OCC(=O)Nc1cccc(Cl)c1C | inactive
41 | CCCCOc1ccc(C(O)(CCN2CCOCC2)c2ccccc2)cc1 (centres undefined) | inactive
42 | CCc1cc(C(=O)N2CCN(C(=O)c3ccco3)CC2)sc1C | inconclusive: 39.8 µM [inhibitor, single point]
43 | Cc1cc(C(=O)Cn2nc(C(=O)O)c3ccccc3c2=O)c(C)n1CCc1ccc(Cl)cc1 | inconclusive: 0.562 µM [inhibitor, full curve, poor fit]
44 | O=C(NCCSCc1ccco1)Nc1cc(Cl)cc(Cl)c1 | inconclusive: 10 µM [inhibitor, partial curve]
45 | Cc1ccc(/C=c2/sc3nnc(-c4ccccc4Cl)n3c2=O)o1 | inactive
46 | CCN(CC)S(=O)(=O)c1cc(C(=O)OCC(=O)Nc2ccc(-c3nc4ccc(C)cc4s3)cc2)ccc1F | inconclusive: 39.8 µM [inhibitor, single point]
47 | CC(=O)c1ccc(N(CC(=O)NC2CCCCC2)C(=O)CNC(=O)c2ccco2)cc1 | inactive
48 | O=c1cc(N2CCN(c3ccc(F)cc3)CC2)[nH]c(=O)n1Cc1ccc(F)cc1 | active: 25.1 µM
49 | O=C(N/N=C/c1cc(Cl)cc([N+](=O)[O-])c1O)c1cccc(S(=O)(=O)N2CCOCC2)c1 | inconclusive: 31.6 µM [inhibitor, single point]
50 | CCc1ccc(-c2csc(NC(=O)C3CC(=O)N(c4ccc5c(c4)OCCO5)C3)n2)cc1 (centres undefined) | inconclusive: 3.16 µM [inhibitor, full curve, poor fit]

Row | SMILES | Potency
51 | O=C(NCCC(=O)N1CCCCCCC1)c1ccc(Br)cc1 | inactive
52 | O=C(Nc1cccc(Cl)c1)Nc1sccc1-c1nc2ccccc2s1 | inconclusive: 7.94 µM [inhibitor, full curve, poor fit]
53 | CC(C)c1ccc(NC(=O)Nc2cc3sccc3n2C)cc1 | inconclusive: 44.7 µM [inhibitor, partial curve, poor fit]
54 | CS(=O)(=O)Nc1cccc(C2=NN(S(C)(=O)=O)C(c3ccc4c(c3)OCO4)C2)c1 (centres undefined) | active: 39.8 µM
55 | CC1(C)CC(NC(=O)COc2ccc(Br)cc2Cl)CC(C)(C)N1 | inactive
56 | CC1=C(C(=O)OC(C)C)C(c2cccc([N+](=O)[O-])c2)n2c(cc(=O)[nH]c2=S)N1 (centres undefined) | active: 35.5 µM
57 | CN(c1ccccc1C(=O)NCC1CCCO1)S(C)(=O)=O (centres undefined) | active: 0.158 µM
58 | CCCn1c(=O)c(C(=O)NNC(=O)c2ccccc2[N+](=O)[O-])c(O)c2ccccc21 | inconclusive: 10 µM [inhibitor, partial curve]
59 | COc1ccccc1Nc1ccc(NC(=O)c2cccc([N+](=O)[O-])c2C)cc1 | active: 3.16 µM
60 | Cc1nn(CC(=O)OCC(=O)Nc2ccccc2[N+](=O)[O-])c(C)c1[N+](=O)[O-] | inactive
61 | CCOc1cc(C2C(C(=O)N3CCCCC3)=C(C)NC3=C2C(=O)CCC3)cc(Br)c1O (centres undefined) | inactive
62 | Cc1ccc(NC2CC(=O)N(Cc3ccccc3)C2=O)cc1 (centres undefined) | inactive
63 | O=C(CS(=O)(=O)c1ccccc1)Nc1nc(-c2ccccc2)cs1 | inconclusive: 3.98 µM [inhibitor, single point]
64 | CCNc1nc(-c2cc3ccccc3o2)cs1 | inconclusive: 28.2 µM [inhibitor, single point]
65 | COC(=O)C(CC(=O)c1ccc(Cl)cc1)c1ccc(C(C)C)cc1 (centres undefined) | active: 0.251 µM
66 | Clc1ccc(Nc2nc(C3CC3)cs2)cc1 | inconclusive: 15.8 µM [inhibitor, partial curve]
67 | O=C(CC1SC(=Nc2cccc3ccccc23)N(Cc2ccccn2)C1=O)Nc1ccccc1Br (centres undefined) | inconclusive: 3.55 µM [inhibitor, single point]
68 | COc1ccc(C(=O)/C=C/C(=O)N(CC(=O)NC2CCCCC2)Cc2ccc(F)cc2)c(O)c1 | inactive
69 | O=C(CN1CCCCC1)Nc1ccc(NC(=O)c2ccccc2Cl)cc1Cl | inactive
70 | CCCc1cc2c(=O)c(-c3ccc4c(c3)OCCO4)c(C)oc2cc1OS(C)(=O)=O | inactive
71 | CCOc1ccccc1CNS(=O)(=O)c1ccc2[nH]c(=O)sc2c1 | inconclusive: 31.6 µM [inhibitor, single point]
72 | CN(CC(=O)Nc1ccc(F)cc1)C(=O)CSc1ncccn1 | inconclusive: 39.8 µM [inhibitor, single point]
73 | CC1=C(C(=O)Nc2ccccc2)C(c2ccc(O)cc2)N2C(=O)CSC2=N1 (centres undefined) | inconclusive: 39.8 µM [inhibitor, single point]
74 | CCN(CC(=O)Nc1ccc(NC(C)=O)cc1)C(=O)/C=C/c1cn(-c2ccccc2)nc1-c1cccs1 | active: 25.1 µM
